From patent US20240400680A1 (SHANGHAI CELGEN BIO PHARMACEUTICAL, published 2024)

T1: full-length human TIGIT on the cell membrane (CHO-K-TIGIT cells; TIGIT-Jurkat cells) (human, UniProt Q495A1 22-244)
T1 construct: whole, on cells; Also used here for TIGIT on human PBMCs in the IFN-gamma assay; also called CHO-TIGIT
T1 sequence (looked up): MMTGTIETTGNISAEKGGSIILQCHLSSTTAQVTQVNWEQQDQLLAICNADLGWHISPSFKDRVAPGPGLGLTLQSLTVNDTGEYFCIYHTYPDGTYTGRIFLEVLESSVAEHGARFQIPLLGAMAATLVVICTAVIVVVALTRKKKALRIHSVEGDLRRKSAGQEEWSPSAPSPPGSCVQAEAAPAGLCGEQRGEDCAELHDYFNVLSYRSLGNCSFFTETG

T2: recombinant IL2Rβ subunit (Sinobio) (UniProt P14784 27-239, limits assumed)
T2 construct: also called IL2RB
T2 sequence (looked up): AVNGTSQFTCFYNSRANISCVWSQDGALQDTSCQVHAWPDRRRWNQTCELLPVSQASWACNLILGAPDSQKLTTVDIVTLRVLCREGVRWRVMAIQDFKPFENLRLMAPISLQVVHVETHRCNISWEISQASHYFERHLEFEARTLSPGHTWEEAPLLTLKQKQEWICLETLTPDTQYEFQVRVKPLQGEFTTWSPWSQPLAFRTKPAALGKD

T3: IL2Rαγ (dimer) on 293F cells (human, UniProt P01589 22-272; P31785 23-369)
T3 construct: whole, on cells
T3 sequence (looked up) 1: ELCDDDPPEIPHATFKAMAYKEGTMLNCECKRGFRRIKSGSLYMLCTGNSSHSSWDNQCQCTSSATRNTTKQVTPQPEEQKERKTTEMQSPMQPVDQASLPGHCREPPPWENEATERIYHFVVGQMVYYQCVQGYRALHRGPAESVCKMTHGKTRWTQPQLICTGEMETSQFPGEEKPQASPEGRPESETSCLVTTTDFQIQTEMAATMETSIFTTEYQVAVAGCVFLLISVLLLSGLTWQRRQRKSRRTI
T3 sequence (looked up) 2: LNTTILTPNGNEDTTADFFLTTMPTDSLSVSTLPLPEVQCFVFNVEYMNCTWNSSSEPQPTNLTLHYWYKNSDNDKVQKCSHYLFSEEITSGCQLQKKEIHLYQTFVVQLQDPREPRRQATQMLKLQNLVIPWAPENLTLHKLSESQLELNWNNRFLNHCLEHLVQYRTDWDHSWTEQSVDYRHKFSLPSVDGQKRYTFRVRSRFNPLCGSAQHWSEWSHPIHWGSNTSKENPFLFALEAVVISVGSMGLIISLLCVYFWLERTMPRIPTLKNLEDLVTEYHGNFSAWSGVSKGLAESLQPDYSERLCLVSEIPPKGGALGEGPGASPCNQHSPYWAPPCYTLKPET

B1: HC1-IL2wt/LC1(ART-Ig) (other)
heavy 1: EVQVVESGGGLVKPGGSLRLSCAASGFTFSTYAMSWVRQAPGKGLEWVAEISSGGSHTFYADTVKGRFTISRDNAKNTLYLQMNSLRAEDTAVYYCARKTLDYYALDYWGQGTTVTVSSASTKGPSVFPLAPSSKSTSGGTAALGCLVKDYFPEPVTVSWNSGALTSGVHTFPAVLQSSGLYSLSSVVTVPSSSLGTQTYICNVNHKPSNTKVDKKV[sequence of human IgG1 Fc with D356K H435R (EU numbers) not given]GGGGSGGGGSGGGGS[sequence of about 150 residues not given]
heavy 2: EVQVVESGGGLVKPGGSLRLSCAASGFTFSTYAMSWVRQAPGKGLEWVAEISSGGSHTFYADTVKGRFTISRDNAKNTLYLQMNSLRAEDTAVYYCARKTLDYYALDYWGQGTTVTVSSASTKGPSVFPLAPSSKSTSGGTAALGCLVKDYFPEPVTVSWNSGALTSGVHTFPAVLQSSGLYSLSSVVTVPSSSLGTQTYICNVNHKPSNTKVDKKV[sequence of human IgG1 Fc with K439E (EU numbers) not given]
light: DVQITQSPSYLSASVGDRVTINCRASKSISKYLAWYQQKPGKAPKLLIYSGSRLQSGIPSRFSGSGYGTDFTLTISSLQPEDFATYYCQQHNEYPWTFGGGTKLEIKRTVAAPSVFIFPPSDEQLKSGTASVVCLLNNFYPREAKVQWKVDNALQSGNSQESVTEQDSKDSTYSLSSTLTLSKADYEKHKVYACEVTHQGLSSPVTKSFNRGEC
notes: Heterodimeric anti-TIGIT ([…]) IgG1 with one wild-type human IL2 on one heavy chain; also called anti-TIGIT antibody HC-IL2 fusion protein (IL2 wild type)
B2: HC1-IL2mut/LC1(ART-Ig) (other)
heavy 1: EVQVVESGGGLVKPGGSLRLSCAASGFTFSTYAMSWVRQAPGKGLEWVAEISSGGSHTFYADTVKGRFTISRDNAKNTLYLQMNSLRAEDTAVYYCARKTLDYYALDYWGQGTTVTVSSASTKGPSVFPLAPSSKSTSGGTAALGCLVKDYFPEPVTVSWNSGALTSGVHTFPAVLQSSGLYSLSSVVTVPSSSLGTQTYICNVNHKPSNTKVDKKV[sequence of human IgG1 Fc with D356K H435R (EU numbers) not given]GGGGSGGGGSGGGGSAPTSSSTKKTQLQLEHLLLDLQMILNGINNYKNPKLTRMLTAKFYMPKKATELKHLQCLEEELKPLEEVLNLAQSKNFHFDPRDVVSNINVFVLELKGSETTFMCEYADETATIVEFLNRWITFCQSIISTLT
heavy 2: B1 heavy 2
light: B1 light
notes: Heterodimeric anti-TIGIT (P03479) IgG1 with one mutant IL2 on one heavy chain; also called anti-TIGIT antibody HC-IL2 fusion protein (IL2mut)

How the values were obtained:
[1] = target: T1, full-length human TIGIT on the cell …; test: flow cytometry on TIGIT-Jurkat cells
Experimental: The binding activity of the anti-TIGIT antibody-IL2 fusion proteins to TIGIT on the cell membrane was tested using flow cytometry. A Jurkat cell line stably expressing human TIGIT was first established. The full-length human TIGIT gene (Sinobio) was amplified by PCR and cloned into the mammalian cell expression vector pcDNA3.1 (Invitrogen), using Not I and Xba I as cloning enzymes. The TIGIT expression plasmid was transfected into Jurkat cells to construct a stable Jurkat cell line expressing TIGIT (TIGIT-Jurkat).
The flow cytometry study method for the binding of TIGIT antibody-IL2 fusion proteins to cell membrane-bound TIGIT is summarized as follows: FACS buffer (1×PBS+0.5% BSA solution) was prepared. The required number of TIGIT-Jurkat cells, about 1×10⁵ to 5×10⁵ cells per sample, was taken and incubated with HC1-IL2 wt/LC1 (ART-Ig) and HC1-IL2mut/LC1 (ART-Ig) diluted to a certain ratio in FACS buffer, approximately 100 μL, at 4° C. for 30 minutes. After washing the cells once with FACS buffer, they were resuspended in FITC-conjugated anti-human IgG (Abcam: 6854) diluted in FACS buffer and incubated at 4° C. for 30 minutes. Finally, after washing the cells with FACS buffer, they were resuspended in 200 μL of FACS buffer for analysis. The parent TIGIT antibody P03479 was used as a control.

[2] = target: T2, recombinant IL2Rβ subunit (Sinobio); test: BLI, recombinant IL2Rβ subunit
[3] = target: T3, IL2Rαγ (dimer) on 293F cells; test: flow cytometry on 293F cells expressing IL2Rαγ
Text: The expression of the respective IL2R subunits on the cell membrane was detected using antibodies against IL2Rα, IL2Rβ, and IL2Ry.

Binder	EC50 [1] [µg/mL]	Kd [2] [nM]	binding result [3]
B1	0.28	–	–
B2	0.33	~8.2	binds
